This note sets out measurements from the supplement of paper PMC4166925.

± gives the standard deviation of the averaged measurements. The full ranking holds about 33,000 sequences; the median of “E-score (dimensionless, -0.5 to 0.5)” is about -0.046, and the highest 2% start at about 0.36. The list shows a part of the results.
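Note: protein at 200 nM in PBS on universal double-stranded arrays.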

The subject of the assay is T1, SpTbr T-box DNA-binding domain (GST fusion).
T1 sequence: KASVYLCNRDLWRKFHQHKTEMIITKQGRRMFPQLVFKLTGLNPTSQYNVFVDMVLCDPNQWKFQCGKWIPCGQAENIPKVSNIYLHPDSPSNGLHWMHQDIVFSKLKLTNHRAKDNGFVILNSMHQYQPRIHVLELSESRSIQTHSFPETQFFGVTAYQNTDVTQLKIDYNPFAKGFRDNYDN
The assay is described as follows: PBM E-score of 8-mer (E-score (dimensionless, -0.5 to 0.5)); Tbr is Tbrain of the sea star Patiria miniata (Pm) or the sea urchin Strongylocentrotus purpuratus (Sp); higher = stronger binding preference; most listed sequences are background and not binding sites. Particulars: the construct has about 5 more residues each side. How it is done: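 Universal protein-binding microarray (Agilent AMADID 016060, 60-bp probes with a 35-bp variable region) incubated with 200 nM GST-fused Strongylocentrotus purpuratus Tbr T-box DNA-binding domain (residues 362-554) in PBS pH 7.5. Scored for every ungapped 8-mer (given with its reverse complement) as E-score (range -0.5 to 0.5; >0.45 counts as bound) and Z-score of median probe intensity. Two replicate arrays (datasets 1 and 2).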
With ATCGCCTC, the “PBM E-score of 8-mer” value was found to be 0.169 ± 0.061. Take ACTGCCGG: the “PBM E-score of 8-mer” value was -0.0124 ± 0.022.

AAAGTATC: the “PBM E-score of 8-mer” value is -0.00131 ± 0.029. Next, TGCCTGAA: -0.2124 ± 0.00087.

Turning to AATCTCCG, the “PBM E-score of 8-mer” value is -0.175 ± 0.042. Regarding AGGAATAG, the “PBM E-score of 8-mer” value was -0.248 ± 0.037. For CTCGGCCC, the “PBM E-score of 8-mer” value was -0.0368 ± 0.041.

Consider ACTCACAG, for which the “PBM E-score of 8-mer” value came out at 0.313 ± 0.011. Consider CTCCGATC, for which the “PBM E-score of 8-mer” value is -0.035 ± 0.069.

Turning to GAGGCATA, the “PBM E-score of 8-mer” value was -0.25 ± 0.078. Next, CATTTCAA: -0.00958 ± 0.06.

On to GCTGGAAA, for which the “PBM E-score of 8-mer” value is -0.0541 ± 0.037. The same measure for AGCTGACC: -0.27 ± 0.024. For CGCGAACG, the “PBM E-score of 8-mer” value amounted to 0.422 ± 0.013.

In the case of GAATAGGC, the “PBM E-score of 8-mer” value is -0.0606 ± 0.049. As to CGGCCTCC, the “PBM E-score of 8-mer” value was -0.264 ± 0.058. As to AAACGATC, the “PBM E-score of 8-mer” value is 0.11 ± 0.0034. Turning to AAGGCCGA, the “PBM E-score of 8-mer” value is -0.1976 ± 0.0019. As for ACCTACGC, the “PBM E-score of 8-mer” value was found to be 0.071 ± 0.034.

On to AGTAACAT, for which the “PBM E-score of 8-mer” value was -0.266 ± 0.032. As to ATGGACGC, the “PBM E-score of 8-mer” value is -0.114 ± 0.015. Take AGACGTAG: the “PBM E-score of 8-mer” value is -0.217 ± 0.039. The same measure for AGGGCACA: 0.0118 ± 0.023; for GATCCTCA: 0.11 ± 0.055. As for AGCATGAT, the “PBM E-score of 8-mer” value is -0.0771 ± 0.026. The same measure for GGGATCCC: -0.236 ± 0.0038; for ATGCCAGC: -0.105 ± 0.0098. CAGTCTCA: the “PBM E-score of 8-mer” value is 0.1623 ± 0.00064. Consider GCGACAAA, for which the “PBM E-score of 8-mer” value was 0.298 ± 0.017. Next, ACACTGAA: -0.0398 ± 0.041; ATCTCAAA: -0.202 ± 0.0099; GATATCAA: 0.0861 ± 0.0077. Consider GAACTGCA, for which the “PBM E-score of 8-mer” value was -0.133 ± 0.029.

For TGTGGCAA, the “PBM E-score of 8-mer” value was 0.261 ± 0.011. The same measure for GACTCCAA: -0.105 ± 0.096; for CAAGACTA: -0.19 ± 0.17; for CATGGGAG: -0.068 ± 0.026. Turning to CGCGGTAG, the “PBM E-score of 8-mer” value was determined as 0.147 ± 0.045. Next, GCTACAGA: 0.0447 ± 0.073; CCTGACCA: -0.0438 ± 0.067. The same measure for CAGACTTA: -0.113 ± 0.05; for TCTCCGAA: -0.175 ± 0.042. The same measure for AACATACC: 0.104 ± 0.018; for AGATTGAA: -0.193 ± 0.028; for TCATACCA: -0.0164 ± 0.012. As for ACAGGATA, the “PBM E-score of 8-mer” value is -0.119 ± 0.036. The same measure for GCGGTAAA: -0.035 ± 0.099. In the case of ACCTCCCC, the “PBM E-score of 8-mer” value was -0.0138 ± 0.047. Next, CCCGCCCG: -0.148 ± 0.0098; ATACCTCC: -0.0183 ± 0.066; ACGCTCCA: -0.1 ± 0.057.

For the sequence GCAATCGC, the “PBM E-score of 8-mer” value came to 0.212 ± 0.0066. For ATTGTCTA, the “PBM E-score of 8-mer” value was -0.196 ± 0.063. As to ATCTGATA, the “PBM E-score of 8-mer” value is -0.22 ± 0.036. The same measure for CGTAGGCA: -0.0428 ± 0.0036; for AATGGCTC: -0.0407 ± 0.06. In the case of CCACAATA, the “PBM E-score of 8-mer” value is -0.0827 ± 0.014. The same measure for CTAATTGA: 0.0472 ± 0.023; for GCTCGTTA: 0.0153 ± 0.065; for ATAACAAC: 0.12 ± 0.092.

For the sequence ATATTAAC, the “PBM E-score of 8-mer” value is -0.0957 ± 0.015. Take GCATACCC: the “PBM E-score of 8-mer” value is -0.188 ± 0.08. Consider CTCTGCCA, for which the “PBM E-score of 8-mer” value is 0.0746 ± 0.08. The same measure for CTCGGACA: -0.0674 ± 0.015. Next, CCTAACTC: -0.0227 ± 0.032; CAAACGTC: -0.223 ± 0.032; CAGTCTCG: -0.0906 ± 0.026.

Consider ATACAGGG, for which the “PBM E-score of 8-mer” value was -0.276 ± 0.015.

As for CTCTACTA, the “PBM E-score of 8-mer” value is -0.000155 ± 0.028. As for ATACGCGA, the “PBM E-score of 8-mer” value is 0.132 ± 0.016. For the sequence AATACGAT, the “PBM E-score of 8-mer” value was -0.0904 ± 0.018. With CCGATGCA, the “PBM E-score of 8-mer” value was -0.207 ± 0.029. In the case of CCGGATCA, the “PBM E-score of 8-mer” value was determined as 0.0508 ± 0.061. With GTTGGCGA, the “PBM E-score of 8-mer” value came to 0.261 ± 0.036.

Consider CCTGTGCC, for which the “PBM E-score of 8-mer” value is -0.039 ± 0.027. Next, GATAGCGA: 0.0892 ± 0.037; ATACCGCA: 0.00315 ± 0.0055; CTGGTCCA: -0.205 ± 0.033. The same measure for CCAGCTAG: -0.162 ± 0.017; for AGAAGAAG: -0.288 ± 0.087. CTCAGGCA: the “PBM E-score of 8-mer” value was -0.202 ± 0.032. As to ATACAGAG, the “PBM E-score of 8-mer” value was -0.0888 ± 0.041. The same measure for GCCGCAAC: -0.0427 ± 0.063; for AGTACGTG: 0.175 ± 0.012; for ATCAACGC: 0.182 ± 0.019. Next, GGTGCCCA: -0.0509 ± 0.059.
